From PubChem BioAssay AID1468 (National Center for Advancing Translational Sciences (NCATS), 2008)
Among all 280,000 compounds or so, about 1,100 (0.39%) were called active. This list was built around the results that the source calls inconclusive (neither active nor inactive); the mix of calls is not that of the screen. The call rests on the fitted dose curve; in most records, active means well fitted inhibition curve with a large enough effect; inconclusive means small, poorly fitted or top-dose-only effect, or effect the other way; inactive means flat fitted curve, though single readings scatter. Potencies of inconclusive entries are left out as doubtful fits.

molecular target: Microtubule-associated protein tau (Homo sapiens) (UniProt P10636); assay: qHTS for Inhibitors of Tau Fibril Formation, Fluorescence Polarization; conditions: K18 P301L tau heparin fibrillization, Alexa594 FP, 6 h; series mostly up to 57.7 µM; activity, negative = inhibition: at the top concentration; further: nearly all actives have a fitted effect of over 55% in size
UniProt P10636, sequence (P10636 whole entry, looked up): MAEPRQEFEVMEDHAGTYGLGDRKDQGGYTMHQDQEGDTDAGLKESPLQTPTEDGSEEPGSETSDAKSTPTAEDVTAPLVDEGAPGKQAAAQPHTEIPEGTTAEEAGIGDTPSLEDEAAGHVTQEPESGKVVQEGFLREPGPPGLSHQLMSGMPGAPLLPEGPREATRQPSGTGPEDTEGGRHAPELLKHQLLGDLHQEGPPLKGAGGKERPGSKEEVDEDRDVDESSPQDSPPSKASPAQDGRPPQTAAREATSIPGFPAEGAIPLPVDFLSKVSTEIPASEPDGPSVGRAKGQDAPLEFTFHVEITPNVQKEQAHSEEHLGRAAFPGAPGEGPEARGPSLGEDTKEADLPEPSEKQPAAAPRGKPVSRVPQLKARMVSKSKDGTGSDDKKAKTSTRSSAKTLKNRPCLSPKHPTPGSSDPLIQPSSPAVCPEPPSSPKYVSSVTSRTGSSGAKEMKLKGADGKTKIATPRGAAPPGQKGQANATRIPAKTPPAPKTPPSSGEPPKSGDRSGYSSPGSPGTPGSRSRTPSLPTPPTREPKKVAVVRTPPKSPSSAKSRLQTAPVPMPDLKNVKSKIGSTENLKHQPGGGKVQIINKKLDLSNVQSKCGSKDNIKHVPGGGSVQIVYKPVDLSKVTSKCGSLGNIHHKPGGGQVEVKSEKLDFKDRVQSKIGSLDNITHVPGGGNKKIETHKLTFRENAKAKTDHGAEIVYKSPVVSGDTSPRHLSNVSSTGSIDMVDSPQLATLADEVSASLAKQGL
Summary of the method: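 Quantitative HTS format: compounds meet 15 uM recombinant K18 P301L tau and Alexa 594-tau tracer in 100 mM sodium acetate pH 7; 20 uM heparin triggers fibrillization at 37 C over 6 hr; FP gives the signal.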
On the % scale 0 is the no-effect control and ±100 the full control effect; potency means the concentration at half of the fitted maximal effect; tags describe the fitted curve by direction and shape.

SMILES | Potency | activity, negative = inhibition
CCOc1cccc2c1N[C@@H](c1ccc(C(=O)O)cc1)[C@H]1CC=C[C@@H]21 | inconclusive [inhibitor, partial curve] | –
COc1ccc(C(=O)C(OC(=O)c2ccc(C)c(NC(C)=O)c2)c2ccccc2)cc1 (stereo unspecified) | inconclusive [inhibitor, full curve, poor fit] | –
CN(C)c1oc(-c2ccc(Cl)cc2)nc1S(=O)(=O)c1ccccc1 | inconclusive [activator, single point] | –
Cc1ccc(-c2cc(C(=O)N/N=C/C(Br)=C/c3ccccc3)n[nH]2)o1 | inconclusive [inhibitor, single point] | –
O=C(NCCSc1c[nH]c2ccccc12)c1c(F)cccc1F | – | inactive: -1.88%
CCOc1ccccc1NC(=O)c1c(NC(=O)c2cccc(C)c2)sc2c1CCC2 | inconclusive [inhibitor, single point] | –
COc1ccc(Cl)cc1NC(=O)N1CCN(c2ccccc2OC)CC1 | – | inactive: 2.82%
CCN(CC)c1ccc(C=Nc2ccc(C)cc2C)c(O)c1 | – | inactive: 3.72%
Clc1ccccc1CSc1nc2ccncc2[nH]1 | – | inactive: -5.47%
Cc1nc(-c2ccccc2)sc1C(=O)NN | inconclusive [inhibitor, single point] | –
O=C(c1ccc(S(=O)(=O)N2CCCCCC2)cc1)N1CCN(c2ccccn2)CC1 | inconclusive [activator, single point] | –
O=C(C1=C(O)C(=O)N(CCOCCO)C1c1cccs1)c1cccs1 (stereo unspecified) | – | inactive: 2.21%
O=S1(=O)c2ccccc2N(Cc2cccc(Cl)c2)c2ccccc21 | inconclusive [inhibitor, single point] | –
COc1cccc(CNC(=O)C2CCN(c3nnc(-n4c(C)ccc4C)s3)CC2)c1OC | – | inactive: -5.07%
COC(=O)CSc1nnc(CNC(=O)c2ccccc2OC)n1C | – | inactive: 1.98%
CCc1nc2ccccc2c(C(=O)OCC(=O)Nc2cccc(S(=O)(=O)NC3=NCCCCC3)c2)c1C | inconclusive [inhibitor, partial curve] | –
Cc1ccc(NS(=O)(=O)c2ccc(CCC(=O)NCCO)cc2)cc1 | inconclusive [inhibitor, single point] | –
CCCc1cc(=O)[nH]c(SCc2ccc(F)cc2)n1 | – | inactive: -0.894%
CCN1CC=C2C(C#N)=C(N)C(C#N)(C#N)[C@H](c3ccoc3)[C@H]2C1 | inconclusive [inhibitor, single point] | –
CCOc1ccc(NC(=O)CSc2ncc3c(n2)-c2ccccc2N(Cc2ccccc2C)S3(=O)=O)cc1 | inconclusive [inhibitor, partial curve] | –
CSc1nsc2nc(=O)c(/C=C3\C=Nc4ccccc43)c(N)n12 | – | inactive: 3.51%
CSc1nc(C)cc(-n2cc(F)c(=O)[nH]c2=O)n1 | – | inactive: 4.88%
Oc1ccccc1-c1nc(/C=C/c2ccc(F)cc2)nn1-c1ccccc1 | inconclusive [inhibitor, partial curve] | –

SMILES | Potency | activity, negative = inhibition
CSc1nc(-c2ccco2)nn1S(=O)(=O)c1ccccc1 | – | inactive: -5.54%
CN1CCN(C(=S)Nc2cc([N+](=O)[O-])ccc2Cl)CC1 | – | inactive: 4.37%
C#Cc1cccc(Nc2ncnc3cc(OC)c(OC)cc23)c1 | inconclusive [inhibitor, partial curve, poor fit] | –
C/C(=N\NC(=O)c1nn(C)c(C)c1Br)c1cccc(NC(=O)c2ccc(F)cc2)c1 | inconclusive [inhibitor, single point] | –
CC1(C)CC(=O)C(C(C2=C(O)CC(C)(C)CC2=O)c2ccc(Br)s2)C(=O)C1 (stereo unspecified) | – | inactive: -1.27%
Cc1cc(O)c(C=O)c2c1C(=O)Oc1c(COC(=O)/C=C/C(=O)O)c(O)c(C(=O)O)c(C)c1O2 | active: 3.55 µM | –
Fc1ccc(Nc2nc3ccccc3s2)cc1 | – | inactive: 8.9%
CCOC(=O)C1CCCN(c2cc(C)nc3cc(-c4ccc(F)cc4)nn23)C1 (stereo unspecified) | inconclusive [activator, single point] | –
COc1cc(/C=C(\C#N)c2nc3ccccc3[nH]2)ccc1OCc1cccc(C(F)(F)F)c1 | inconclusive [inhibitor, partial curve] | –
Nc1c(C(=O)NCc2ccco2)c2nc3ccccc3nc2n1CCc1ccc(F)cc1 | inconclusive [inhibitor, single point] | –
CCOc1ccccc1NC(=O)c1ccc(F)c(S(=O)(=O)NCc2ccc3c(c2)OCO3)c1 | – | inactive: -5.31%
O=C(CSc1nc2ccc(Cl)cc2[nH]1)Nc1ccc2c(c1)CCC2 | active: 12.6 µM | –
CCCCNC(=O)CCCn1c(=O)c2ccccc2n(CC(=O)Nc2ccccc2OCC)c1=O | – | inactive: -2.21%
Cc1cccc(C(=O)N2CCc3c([nH]c4ccccc34)C2CC(C)C)n1 (stereo unspecified) | inconclusive [activator, single point] | –
O=c1cc(-c2ccccc2)nc2nc(-c3ccccc3)[nH]n12 | inconclusive [inhibitor, single point] | –
CN(C(=O)CSCC(=O)O)C1CCCCC1 | – | inactive: -0.63%
COc1cc(/C=N/NC(=O)CCn2c3ccccc3c3ccccc32)cc(OC)c1OC | inconclusive [inhibitor, single point] | –
Cc1cc(/C=C2\C(=N)N3N=CSC3=NC2=O)c(C)n1Cc1ccccc1 | inconclusive [inhibitor, full curve] | –
COc1cc(NC(=S)N2CCN(C(c3ccccc3)c3ccccc3)CC2)cc(OC)c1 | inconclusive [inhibitor, single point] | –
CN(C)S(=O)(=O)c1ccc(C(=O)Nc2nnc(-c3ccco3)o2)cc1 | – | inactive: -2.49%
COc1ccc2c(c1)c(C(=O)CN1CCc3ccccc3C1)c(C)n2C | – | inactive: -6.37%
Cc1noc(/C=C/c2cccs2)c1S(=O)(=O)N1CCC(C(=O)NCc2ccccc2Cl)CC1 | inconclusive [inhibitor, partial curve] | –
CCc1ccc(N(C)S(=O)(=O)c2ccc3[nH]cc(C(=O)NCCN4CCOCC4)c(=O)c3c2)cc1 | inconclusive [inhibitor, single point] | –
